Assay results reported in the supplement of paper PMC8728848.
The other results are listed elsewhere or left out.

Assays:
Test in all cases: glycan array binding signal (z-score within array); higher = stronger binding
Settings in all cases: glycan notation: IUPAC condensed, linker removed
[1] = target: Fuc(a1-2)Gal
Summary of the method: (§1)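 Arrays were curated from the Consortium for Functional Glycomics database, 3228 in total, and kept only where the protein sequence was available. Binding is expressed as a within-array Z-score. This score was averaged across arrays of the same protein sequence at different concentrations or buffers and across linkers, and negative values can be read as non-binding.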

[2] = target: Fuc(a1-2)Gal(b1-3)GalNAc
Summary of the method: as §1

[3] = target: Fuc(a1-2)Gal(b1-3)GalNAc(b1-3)Gal
Summary of the method: as §1

[4] = target: Fuc(a1-2)Gal(b1-3)GalNAc(b1-3)Gal(a1-4)Gal(b1-4)Glc
Summary of the method: as §1

[5] = target: Fuc(a1-2)Gal(b1-3)GalNAc(b1-4)[Neu5Ac(a2-3)]Gal(b1-4)Glc
Summary of the method: as §1

[6] = target: Fuc(a1-2)Gal(b1-3)GlcNAc
Summary of the method: as §1

[7] = target: Fuc(a1-2)Gal(b1-3)GlcNAc(b1-3)Gal(b1-4)Glc
Summary of the method: as §1

[8] = target: Fuc(a1-2)Gal(b1-3)[Fuc(a1-4)]GlcNAc
Summary of the method: as §1

[9] = target: Fuc(a1-2)Gal(b1-4)Glc
Summary of the method: as §1

[10] = target: Fuc(a1-2)Gal(b1-4)Glc6S
Summary of the method: as §1

[11] = target: Fuc(a1-2)Gal(b1-4)GlcNAc
Summary of the method: as §1

[12] = target: Fuc(a1-2)Gal(b1-4)GlcNAc(b1-3)Gal(b1-4)GlcNAc
Summary of the method: as §1

[13] = target: Fuc(a1-2)Gal(b1-4)GlcNAc(b1-3)Gal(b1-4)GlcNAc(b1-3)Gal(b1-4)GlcNAc
Summary of the method: as §1

[14] = target: Fuc(a1-2)Gal(b1-4)GlcNAc6S
Summary of the method: as §1

[15] = target: Fuc(a1-2)Gal(b1-4)[Fuc(a1-3)]GlcNAc
Summary of the method: as §1

[16] = target: Fuc(a1-2)Gal(b1-4)[Fuc(a1-3)]GlcNAc(b1-3)Gal(b1-4)[Fuc(a1-3)]GlcNAc
Summary of the method: as §1

[17] = target: Fuc(a1-2)Gal(b1-4)[Fuc(a1-3)]GlcNAc(b1-3)Gal(b1-4)[Fuc(a1-3)]GlcNAc(b1-3)Gal(b1-4)[Fuc(a1-3)]GlcNAc
Summary of the method: as §1

[18] = target: Fuc(a1-2)Gal6S(b1-4)Glc
Summary of the method: as §1

[19] = target: Fuc(a1-2)Gal6S(b1-4)Glc6S
Summary of the method: as §1

[20] = target: Fuc(a1-2)Gal6S(b1-4)GlcNAc
Summary of the method: as §1

[21] = target: Fuc(a1-2)[Gal(a1-3)]Gal
Summary of the method: as §1

[22] = target: Fuc(a1-2)[Gal(a1-3)]Gal(b1-3)GlcNAc
Summary of the method: as §1

[23] = target: Fuc(a1-2)[Gal(a1-3)]Gal(b1-4)Glc
Summary of the method: as §1

[24] = target: Fuc(a1-2)[Gal(a1-3)]Gal(b1-4)GlcNAc
Summary of the method: as §1

[25] = target: Fuc(a1-2)[Gal(a1-3)]Gal(b1-4)[Fuc(a1-3)]GlcNAc
Summary of the method: as §1

[26] = target: Fuc(a1-2)[Gal(a1-4)]Gal(b1-4)GlcNAc
Summary of the method: as §1

[27] = target: Fuc(a1-2)[GalNAc(a1-3)]Gal
Summary of the method: as §1

[28] = target: Fuc(a1-2)[GalNAc(a1-3)]Gal(b1-3)GlcNAc
Summary of the method: as §1

[29] = target: Fuc(a1-2)[GalNAc(a1-3)]Gal(b1-4)Glc
Summary of the method: as §1

[30] = target: Fuc(a1-2)[GalNAc(a1-3)]Gal(b1-4)GlcNAc
Summary of the method: as §1

B1: GH95CBM (Clostridium perfringens) (protein)
chain: EKVAVETSVYLSELEWKSASTGYGEIQKDASCDGNTITLKGENGEKVSYDKGIGTHAHSEIVYSLEGLDYYDYFETFVGVDQEMAGTVASISFEVYLDNEKVFDSGLMTGDTTQKHVKVPIAGKNTLKLVVKDGGDSIGSDHGSFGDAKLT
In the case of B1, the “glycan array binding signal (z-score)” value [1] is reported as -0.335, the “glycan array binding signal (z-score)” value [2] is reported as 0.102 and the “glycan array binding signal (z-score)” value [3] is reported as -0.264. The “glycan array binding signal (z-score)” value [4] was 0.083, the “glycan array binding signal (z-score)” value [5] was -0.108 and the “glycan array binding signal (z-score)” value [6] was 3.17. The “glycan array binding signal (z-score)” value [7] was -0.338, the “glycan array binding signal (z-score)” value [8] was 0.161 and the “glycan array binding signal (z-score)” value [9] was -0.353. The “glycan array binding signal (z-score)” value [10] was -0.329, the “glycan array binding signal (z-score)” value [11] was -0.313 and the “glycan array binding signal (z-score)” value [12] was -0.285. For the same binder, the “glycan array binding signal (z-score)” value [13] was -0.3, the “glycan array binding signal (z-score)” value [14] was -0.334 and the “glycan array binding signal (z-score)” value [15] was -0.325. The “glycan array binding signal (z-score)” value [16] was -0.342, the “glycan array binding signal (z-score)” value [17] was -0.311 and the “glycan array binding signal (z-score)” value [18] was -0.323. The “glycan array binding signal (z-score)” value [19] was -0.298, the “glycan array binding signal (z-score)” value [20] was -0.296 and the “glycan array binding signal (z-score)” value [21] was 1.22. For the same binder, the “glycan array binding signal (z-score)” value [22] was -0.321, the “glycan array binding signal (z-score)” value [23] was -0.347 and the “glycan array binding signal (z-score)” value [24] was -0.303. The “glycan array binding signal (z-score)” value [25] was -0.33, the “glycan array binding signal (z-score)” value [26] was -0.311 and the “glycan array binding signal (z-score)” value [27] was -0.291. For the same binder, the “glycan array binding signal (z-score)” value [28] was -0.344, the “glycan array binding signal (z-score)” value [29] was -0.219 and the “glycan array binding signal (z-score)” value [30] was -0.284.
